{
  "source": "PubChem BioAssay AID485364",
  "about": "(National Center for Advancing Translational Sciences (NCATS), 2010)",
  "note": "The campaign covered roughly 360,000 compounds. About 11,000 (3.1%) were called active. This list was built around the results that the source calls inconclusive (neither active nor inactive); the mix of calls is not that of the screen. Calls come from the whole dose curve; as a rule, active = well fitted inhibition curve with a large enough effect; inconclusive = small, poorly fitted or top-dose-only effect; inactive = no such curve, though single readings can be large or run the other way. Potencies of inconclusive entries are left out as doubtful fits. % is set by controls: 0 for no effect and ±100 for the full control effect; potency is the fitted concentration of half-maximal effect; tags give direction and shape of the fitted curve.",
  "data": [
    {"target": "Schistosoma mansoni thioredoxin glutathione reductase (TGR) (UniProt Q962Y6)", "test": "qHTS Assay for the Inhibitors of Schistosoma Mansoni Peroxiredoxins; note: nearly all actives have a fitted effect of over 60% in size", "details": "purified TGR, DTNB reduction, TNB absorbance 405 nm; activity change, negative = inhibition: at 114 µM (top of the series) unless noted", "method_in_brief": "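First, TGR (20 nM dispensed) and NADPH were mixed with compound. Second, a 15 min room-temperature incubation followed. Third, further NADPH and then DTNB were added to start the reaction. Finally, TNB absorbance was monitored kinetically.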", "values": [
      {"compound": "Cc1ccc(C)c(NS(=O)(=O)c2ccc(-c3ccc(=O)[nH]n3)o2)c1", "Potency": "inconclusive [inhibitor, partial curve]"},
      {"compound": "COc1cc(CN2CCNC(=O)C2CC(=O)NC2CCCCC2)cc(OC)c1", "note": "(stereo not drawn)", "Potency": "inconclusive [inhibitor, partial curve]"},
      {"compound": "O=C(NC(=S)Nc1ccc2oc(=O)ccc2c1)c1ccco1", "Potency": "inconclusive [inhibitor, full curve]"},
      {"compound": "Cc1cc(N2CC(C)OC(C)C2)n2cc(-c3ccccc3)nc2n1", "note": "(stereo not drawn)", "activity change, negative = inhibition": "inactive: -3.51%"},
      {"compound": "O=C1C2C3C=CC(CC3)C2C(=O)N1c1ccccc1", "note": "(stereo not drawn)", "Potency": "inconclusive [inhibitor, full curve, poor fit]"},
      {"compound": "N#CCCN1CCCN(CCC#N)CCN(CCC#N)CCCN(CCC#N)CC1", "Potency": "inconclusive [inhibitor, partial curve]"},
      {"compound": "Clc1ccc(Cl)c2sc(N3CCCC3)nc12", "Potency": "inconclusive [inhibitor, partial curve]"},
      {"compound": "CC(=O)N1CCc2cc(S(=O)(=O)C(C)CC(=O)NCc3ccc(C)o3)ccc21", "note": "(stereo not drawn)", "Potency": "inconclusive [inhibitor, partial curve]"},
      {"compound": "COc1ccc(-c2cc(C(=O)Nc3ccc(C#N)cc3)no2)cc1", "activity change, negative = inhibition": "inactive: 11%"},
      {"compound": "CNCCc1ccccc1", "activity change, negative = inhibition": "inactive: -34.4%"},
      {"compound": "COc1ccccc1NC(=O)c1c(-c2ccc(C)cc2)nnc2ccccc12", "activity change, negative = inhibition": "inactive: -9.35%"},
      {"compound": "N[C@@H](Cc1ccccc1)C(=O)N1CCC(C(=O)NCC(=O)Nc2ccc(F)cc2)CC1", "Potency": "inconclusive [inhibitor, partial curve]"},
      {"compound": "CCOC(=O)C1CCCN(C(=O)c2ccc(CS(=O)(=O)c3ccc(C)cc3)o2)C1", "note": "(stereo not drawn)", "Potency": "active: 20 µM"},
      {"compound": "Cc1ccc(Nc2c(-c3ccccn3)nc3ccc(Br)cn23)cc1", "activity change, negative = inhibition": "inactive: 4.81%"},
      {"compound": "N[C@@H](Cc1ccccc1)c1nnc(SC/C=C/c2ccccc2)o1", "Potency": "inconclusive [inhibitor, partial curve]"},
      {"compound": "C=CCN(CC=C)C(=S)NC(=O)Cc1cccc2ccccc12", "activity change, negative = inhibition": "inactive: 11.7%"},
      {"compound": "CC1(OC(=O)C2CCCC2)C(=O)C=C2C=C(c3ccsc3)OC=C2C1=O", "note": "(stereo not drawn)", "Potency": "active: 44.7 µM"},
      {"compound": "CC1(C)CC(=O)C2=C(C1)O[C@@]1(c3ccsc3)Cc3cc(C#N)ccc3C2O1", "Potency": "inconclusive [inhibitor, partial curve]"},
      {"compound": "Cc1oc2cc(Br)c(O)c(Br)c2c1C(=O)c1ccccc1", "Potency": "active: 15.8 µM"},
      {"compound": "COc1cccc([C@@H]2CC=C(C(=O)O)[C@H](c3ccccc3F)N2S(=O)(=O)c2ccc(C)cc2)c1", "activity change, negative = inhibition": "inactive: -7.55%"},
      {"compound": "CCC1S/C(=N/N=C/c2ccco2)N(Cc2ccc(F)cc2)C1=O", "note": "(stereo not drawn)", "Potency": "inconclusive [inhibitor, partial curve]"},
      {"compound": "COc1ccc(C2/C=C\\CN(Cc3ccncc3)CC(=O)N2Cc2ccc(F)cc2)cc1", "note": "(stereo not drawn)", "Potency": "inconclusive [inhibitor, partial curve]"},
      {"compound": "CN1CCN(NC(=O)Nc2cccc(F)c2)CC1", "activity change, negative = inhibition": "inactive: -14.6%"},
      {"compound": "COc1cc([N+](=O)[O-])cc([N+](=O)[O-])c1NC(=O)N1CCOCC1", "Potency": "inconclusive [inhibitor, partial curve]"},
      {"compound": "O=C(c1ccccc1)N(Cc1ccccc1)c1ccccn1", "activity change, negative = inhibition": "inactive: -24.8%"},
      {"compound": "CCn1c(C)c(C2=CCN(S(=O)(=O)c3ccccc3)CC2)c2ccccc21", "Potency": "inconclusive [inhibitor, partial curve]"},
      {"compound": "Cc1ccc(Cl)cc1NC(=O)c1ocnc1C", "Potency": "inconclusive [inhibitor, full curve, poor fit]"},
      {"compound": "Fc1ccccc1CCNCc1ccccc1", "activity change, negative = inhibition": "inactive: -10.6%"},
      {"compound": "CSc1nc(-c2ccccc2)nc(N2CCN(C)CC2)c1C(C)=O", "Potency": "inconclusive [inhibitor, single point]"},
      {"compound": "O=C(CSc1ccc(-c2ccco2)nn1)Nc1ccc(F)cc1", "Potency": "inconclusive [inhibitor, full curve]"},
      {"compound": "Cc1ccc(/C=[N+](\\[O-])c2ccccc2C)o1", "Potency": "inconclusive [inhibitor, partial curve, poor fit]"},
      {"compound": "COc1cc(C2Nc3ccc4ncccc4c3C3=C2C(=O)CCC3)cc(OC)c1O", "note": "(stereo not drawn)", "Potency": "inconclusive [inhibitor, partial curve]"},
      {"compound": "CCOC(=O)c1cc(-c2ccc(/C=C3/C(=O)NC(=O)C(C#N)=C3C)o2)ccc1Cl", "Potency": "active: 7.94 µM"},
      {"compound": "CN(CC(=O)NCC(=O)Nc1ccc(F)cc1)C1CCS(=O)(=O)C1", "note": "(stereo not drawn)", "activity change, negative = inhibition": "inactive: -5.5%"},
      {"compound": "Cc1nc2ccc(NC(=S)N3CCC(C)CC3)cc2nc1C", "Potency": "inconclusive [inhibitor, partial curve]"},
      {"compound": "C#CCOCCOCCOCCNc1nc(N2CCN(C(=O)CCCCCCCCCCNC(=O)[C@H]([C@@H](C)CC)n3cc(CCCCCN)nn3)CC2)nc(N2CCN(C(=O)CCCCCCCCCCNC(=O)[C@H]([C@@H](C)CC)n3cc(CCCCN=C(N)N)nn3)CC2)n1", "Potency": "inconclusive [inhibitor, partial curve]"},
      {"compound": "CCOC(=O)/C(C(C)=O)=C1/OC(=O)c2ccccc21", "Potency": "active: 11.2 µM"},
      {"compound": "Cc1nnc(SCC(=O)NCc2ccco2)n1-c1ccccc1", "Potency": "inconclusive [inhibitor, partial curve]"},
      {"compound": "Cc1cccc(C)c1NC(=O)CN(C)C(=O)c1ccc(-c2cccc(C(F)(F)F)c2)o1", "Potency": "inconclusive [inhibitor, partial curve]"},
      {"compound": "O=[N+]([O-])c1cccc(-n2nnnc2CN2CCCC2)c1", "activity change, negative = inhibition": "inactive: -2.1%"},
      {"compound": "O=C(NNC(=O)C1CC1)c1cc(Cl)nc2ccccc12", "Potency": "inconclusive [inhibitor, single point]"},
      {"compound": "COC(=O)C1=C(C)N(C)C(=S)N(C)C1c1cccc(Br)c1", "note": "(stereo not drawn)", "Potency": "inconclusive [inhibitor, full curve]"},
      {"compound": "CC1(C)Oc2ccc(NC(=O)c3ccco3)cc2O1", "activity change, negative = inhibition": "inactive: 11.5%"},
      {"compound": "Cc1ccc(OCCN(C)C(=O)CC2C(=O)NCCN2CC(C)(C)C)cc1", "note": "(stereo not drawn)", "Potency": "inconclusive [inhibitor, full curve]"},
      {"compound": "CCOC(=O)N1CCc2c(sc3c2c(=O)n(-c2ccc(CC)cc2)c(=O)n3Cc2ccc(F)cc2Cl)C1", "activity change, negative = inhibition": "inactive: -0.782%"},
      {"compound": "Cc1cc2c(C)cc(=O)[nH]c2cc1NC(=O)CCl", "Potency": "active: 10 µM"},
      {"compound": "CNC(=S)N1CCN(c2ccc([N+](=O)[O-])cc2)CC1", "activity change, negative = inhibition": "inactive: 10.8%"},
      {"compound": "COc1ccccc1N1CCN(C(=O)c2cc3c(=O)n(Cc4cccs4)ccc3nc2C)CC1", "activity change, negative = inhibition": "inactive: -10.1%"},
      {"compound": "Cc1cc(C(=O)NCCCN2CCOCC2)n(-c2ccccc2)n1", "Potency": "inconclusive [inhibitor, partial curve]"},
      {"compound": "CN(C)CC#CCn1c2ccccc2c2ccccc21", "Potency": "inconclusive [inhibitor, partial curve]"},
      {"compound": "CC1CCN(C(=O)C2CCN(S(=O)(=O)N3CCC4(CC3)OCCO4)CC2)CC1", "Potency": "inconclusive [inhibitor, single point]"},
      {"compound": "CC(=O)Nc1ccc(NC(=O)CC2Nc3cccc4cccc(c34)NC2=O)cc1", "note": "(stereo not drawn)", "Potency": "inconclusive [inhibitor, partial curve]"},
      {"compound": "COC(=O)C1=C(CS(=O)(=O)c2ccc(Cl)cc2)NC(=O)NC1c1ccc(O)c(OC)c1", "note": "(stereo not drawn)", "Potency": "inconclusive [inhibitor, full curve, poor fit]"},
      {"compound": "Cc1occc1C(=O)NC(C)C12CC3CC(CC(C3)C1)C2", "note": "(stereo not drawn)", "Potency": "inconclusive [inhibitor, partial curve]"},
      {"compound": "O=C(NCCCn1ccnc1)C(=O)NCC(c1ccco1)N1CCN(c2ccccc2)CC1", "note": "(stereo not drawn)", "Potency": "inconclusive [inhibitor, single point]"},
      {"compound": "Cc1ccccc1N=Nc1c(O)n(C)c2ccccc12", "Potency": "active: 35.5 µM"},
      {"compound": "CC(C)(C)c1cc(NC(=O)CCl)n(-c2ccccc2)n1", "Potency": "active: 12.6 µM"},
      {"compound": "CCn1c2ccccc2c2cc(NC(=O)COC(=O)c3ccccc3F)ccc21", "Potency": "inconclusive [inhibitor, single point]"},
      {"compound": "CCc1cccc(CC)c1NC(=O)CN(C)S(=O)(=O)c1ccc2c(c1)n(C)c(=O)c(=O)n2C", "activity change, negative = inhibition": "inactive: -0.662%"},
      {"compound": "COCc1c(C(=O)N/N=C/c2ccncc2)nnn1-c1nonc1N", "activity change, negative = inhibition": "inactive: 9.93%"},
      {"compound": "CN(CC(=O)Nc1ccc(Cl)c(C(F)(F)F)c1)C(=O)CCNC(=O)c1ccco1", "activity change, negative = inhibition": "inactive: -4.69%"},
      {"compound": "C/C=C/C1=CC(=O)C[C@H](c2ccc(OC)c(OC)c2)C1", "Potency": "inconclusive [inhibitor, partial curve]"},
      {"compound": "CCN(Cc1ccc2c(c1)OCCO2)C(=O)CN1C(=O)NC2(CCc3ccccc32)C1=O", "note": "(stereo not drawn)", "activity change, negative = inhibition": "inactive: -4.28%"},
      {"compound": "CCOc1cc(C(=O)NC(=S)Nc2ccc(Cl)c(C(=O)O)c2)cc(OCC)c1OCC", "Potency": "active: 31.6 µM"},
      {"compound": "CCOc1ccc(NC(=S)Nc2cccnc2)cc1", "Potency": "inconclusive [inhibitor, partial curve]"},
      {"compound": "COc1cc(/C=C/C(=O)Nc2nnc(CC(C)(C)C)s2)cc(OC)c1OC", "activity change, negative = inhibition": "inactive: -2.19%"},
      {"compound": "Cc1oc(-c2ccc(C(F)(F)F)cc2)nc1CN(Cc1ccccn1)C[C@@H]1CCC(=O)N1", "Potency": "inconclusive [inhibitor, partial curve]"},
      {"compound": "CCN(CCO)C1CC(=O)N(c2ccccc2C)C1=O", "note": "(stereo not drawn)", "Potency": "active: 6.31 µM"},
      {"compound": "O=C1CCCCCN1CP(=O)(O)CCc1ccccc1", "Potency": "inconclusive [inhibitor, single point]"},
      {"compound": "COc1ccc(N2CCN(Cc3nc4c(c(=O)[nH]c(=O)n4C)n3Cc3ccccc3F)CC2)cc1", "activity change, negative = inhibition": "inactive: -0.288%"},
      {"compound": "O=C1CNC(=S)N1CCc1ccc(O)c(O)c1", "Potency": "active: 1.78 µM"},
      {"compound": "Cc1ccccc1/C=C/C(=O)c1ccc([N+](=O)[O-])o1", "Potency": "active: 2 µM"},
      {"compound": "CCOC(=O)N1CCN(C2CCCN(C(=O)c3cccc(Cl)c3)C2)CC1", "note": "(stereo not drawn)", "Potency": "inconclusive [inhibitor, full curve]"}
    ]}
  ]
}
